# Some of the results follow.
# B1: ECL (Erythrina cristagalli), Q6YD91 (protein)
# chain: VETISFSFSEFEPGNNDLTLQGAAIITQSGVLQLTKINQNGMPAWDSTGRTLYTKPVHIWDMTTGTVASFETRFSFSIEQPYTRPLPADGLVFFMGPTKSKPAQGYGYLGVFNNSKQDNSYQTLAVEFDTFSNPWDPPQVPHIGIDVNSIRSIKTQPFQLDNGQVANVVIKYDASSKILLAVLVYPSSGAIYTIAEIVDVKQVLPEWVDVGLSGATGAQRDAAETHDVYSWSFHASLPETND
# Assays:
# Experiment in all cases: glycan array binding signal (z-score within array); higher = stronger binding
# Settings in all cases: glycan notation: IUPAC condensed, linker removed
# [1] = biological target: Neu5Ac(a2-3)Gal(b1-4)GlcNAc(b1-6)GalNAc
# Summary of the method: (§1)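 Glycan array data were curated from 3228 arrays in the Consortium for Functional Glycomics database and kept only where the protein sequence was available. Glycan names were converted to IUPAC-condensed notation, and columns mapping to the same glycan were averaged. The binding signal is a within-array Z-score, averaged across arrays of the same protein sequence at different concentrations or buffers and across linkers. Negative Z-scores can be read as non-binding.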
# [2] = biological target: Neu5Ac(a2-3)Gal(b1-4)GlcNAc(b1-6)[Gal(b1-3)]GalNAc
# Summary of the method: as §1
# [3] = biological target: Neu5Ac(a2-3)Gal(b1-4)GlcNAc(b1-6)[Neu5Ac(a2-3)Gal(b1-3)]GalNAc
# Summary of the method: as §1
# [4] = biological target: Neu5Ac(a2-3)Gal(b1-4)GlcNAc6S
# Summary of the method: as §1
# [5] = biological target: Neu5Ac(a2-3)Gal(b1-4)[Fuc(a1-3)]GlcNAc
# Summary of the method: as §1
# [6] = biological target: Neu5Ac(a2-3)Gal(b1-4)[Fuc(a1-3)]GlcNAc(b1-2)Man
# Summary of the method: as §1
# [7] = biological target: Neu5Ac(a2-3)Gal(b1-4)[Fuc(a1-3)]GlcNAc(b1-3)Gal
# Summary of the method: as §1
# [8] = biological target: Neu5Ac(a2-3)Gal(b1-4)[Fuc(a1-3)]GlcNAc(b1-3)Gal(b1-4)GlcNAc
# Summary of the method: as §1
# [9] = biological target: Neu5Ac(a2-3)Gal(b1-4)[Fuc(a1-3)]GlcNAc(b1-3)Gal(b1-4)[Fuc(a1-3)]GlcNAc(b1-3)Gal(b1-4)[Fuc(a1-3)]GlcNAc
# Summary of the method: as §1
# [10] = biological target: Neu5Ac(a2-3)Gal(b1-4)[Fuc(a1-3)]GlcNAc(b1-3)GalNAc
# Summary of the method: as §1
# [11] = biological target: Neu5Ac(a2-3)Gal(b1-4)[Fuc(a1-3)]GlcNAc(b1-6)[Gal(b1-3)]GalNAc
# Summary of the method: as §1
# [12] = biological target: Neu5Ac(a2-3)Gal(b1-4)[Fuc(a1-3)]GlcNAc(b1-6)[Neu5Ac(a2-3)Gal(b1-3)]GalNAc
# Summary of the method: as §1
# [13] = biological target: Neu5Ac(a2-3)Gal(b1-4)[Fuc(a1-3)]GlcNAc6S
# Summary of the method: as §1
# [14] = biological target: Neu5Ac(a2-3)Gal6S(b1-4)GlcNAc
# Summary of the method: as §1
# [15] = biological target: Neu5Ac(a2-3)Gal6S(b1-4)[Fuc(a1-3)]GlcNAc
# Summary of the method: as §1
# [16] = biological target: Neu5Ac(a2-3)GalNAc
# Summary of the method: as §1
# [17] = biological target: Neu5Ac(a2-3)GalNAc(b1-4)GlcNAc
# Summary of the method: as §1
# [18] = biological target: Neu5Ac(a2-3)[GalNAc(b1-4)]Gal(b1-4)Glc
# Summary of the method: as §1
# [19] = biological target: Neu5Ac(a2-3)[GalNAc(b1-4)]Gal(b1-4)GlcNAc
# Summary of the method: as §1
# [20] = biological target: Neu5Ac(a2-3)[GalNAc(b1-4)]Gal(b1-4)GlcNAc(b1-3)GalNAc
# Summary of the method: as §1
# [21] = biological target: Neu5Ac(a2-3)[Neu5Ac(a2-6)]GalNAc
# Summary of the method: as §1
# [22] = biological target: Neu5Ac(a2-6)Gal
# Summary of the method: as §1
# [23] = biological target: Neu5Ac(a2-6)Gal(b1-3)GlcNAc(b1-3)[Gal(b1-4)GlcNAc(b1-6)]Gal(b1-4)Glc
# Summary of the method: as §1
# [24] = biological target: Neu5Ac(a2-6)Gal(b1-4)Glc
# Summary of the method: as §1
# [25] = biological target: Neu5Ac(a2-6)Gal(b1-4)GlcNAc
# Summary of the method: as §1
# [26] = biological target: Neu5Ac(a2-6)Gal(b1-4)GlcNAc(b1-2)Man
# Summary of the method: as §1
# [27] = biological target: Neu5Ac(a2-6)Gal(b1-4)GlcNAc(b1-2)Man(a1-3)Man(b1-4)GlcNAc(b1-4)GlcNAc
# Summary of the method: as §1
# [28] = biological target: Neu5Ac(a2-6)Gal(b1-4)GlcNAc(b1-2)Man(a1-3)[Gal(b1-4)GlcNAc(b1-2)Man(a1-6)]Man(b1-4)GlcNAc(b1-4)GlcNAc
# Summary of the method: as §1
# [29] = biological target: Neu5Ac(a2-6)Gal(b1-4)GlcNAc(b1-2)Man(a1-3)[GlcNAc(b1-2)Man(a1-6)]Man(b1-4)GlcNAc(b1-4)GlcNAc
# Summary of the method: as §1
# [30] = biological target: Neu5Ac(a2-6)Gal(b1-4)GlcNAc(b1-2)Man(a1-3)[GlcNAc(b1-4)][Neu5Ac(a2-6)Gal(b1-4)GlcNAc(b1-2)Man(a1-6)]Man(b1-4)GlcNAc(b1-4)GlcNAc
# Summary of the method: as §1
binder,measurement,setting,value
B1,glycan array binding signal (z-score),[1],-0.351
same,glycan array binding signal (z-score),[2],-0.32
same,glycan array binding signal (z-score),[3],-0.366
same,glycan array binding signal (z-score),[4],-0.222
same,glycan array binding signal (z-score),[5],-0.268
same,glycan array binding signal (z-score),[6],-0.332
same,glycan array binding signal (z-score),[7],-0.424
same,glycan array binding signal (z-score),[8],-0.043
same,glycan array binding signal (z-score),[9],-0.241
same,glycan array binding signal (z-score),[10],-0.17
same,glycan array binding signal (z-score),[11],1.35
same,glycan array binding signal (z-score),[12],-0.092
same,glycan array binding signal (z-score),[13],-0.293
same,glycan array binding signal (z-score),[14],-0.336
same,glycan array binding signal (z-score),[15],-0.434
same,glycan array binding signal (z-score),[16],-0.491
same,glycan array binding signal (z-score),[17],-0.413
same,glycan array binding signal (z-score),[18],-0.505
same,glycan array binding signal (z-score),[19],-0.393
same,glycan array binding signal (z-score),[20],0.548
same,glycan array binding signal (z-score),[21],-0.483
same,glycan array binding signal (z-score),[22],-0.186
same,glycan array binding signal (z-score),[23],-0.064
same,glycan array binding signal (z-score),[24],-0.284
same,glycan array binding signal (z-score),[25],-0.23
same,glycan array binding signal (z-score),[26],-0.253
same,glycan array binding signal (z-score),[27],-0.235
same,glycan array binding signal (z-score),[28],-0.266
same,glycan array binding signal (z-score),[29],-0.345
same,glycan array binding signal (z-score),[30],-0.531

# Reference: the supplement of paper PMC8728848
